Source: PubChem BioAssay AID504332 (National Center for Advancing Translational Sciences (NCATS), 2011)
The campaign covered roughly 350,000 compounds. About 31,000 (8.9%) were called active. This list was built around the results that the source calls inconclusive (neither active nor inactive); the mix of calls is not that of the screen. Calls follow the shape of the dose curve; as a rule, active = well fitted inhibition curve with a large enough effect; inconclusive = small, poorly fitted or top-dose-only effect; inactive = no such curve, though single readings can be large or run the other way. Where the call is inconclusive, the potency comes from a doubtful curve fit.
% is scaled to controls: 0 for no effect and ±100 for the full control effect; potency is read from the fitted curve at half-maximal effect; tags tell the direction and shape of the fitted curve.
Also: nearly all actives have a fitted effect of over 75% in size.

Each compound was assayed against Histone-lysine N-methyltransferase EHMT2 (Homo sapiens) (UniProt Q96KQ7) (assay: qHTS Assay for Inhibitors of Histone Lysine Methyltransferase G9a). Details: G9a H3K9 monomethylation, AlphaScreen, 2 h; activity, negative = inhibition: at 59 µM (top of the series) unless noted.
Sequence of UniProt Q96KQ7 (Q96KQ7 whole entry, looked up): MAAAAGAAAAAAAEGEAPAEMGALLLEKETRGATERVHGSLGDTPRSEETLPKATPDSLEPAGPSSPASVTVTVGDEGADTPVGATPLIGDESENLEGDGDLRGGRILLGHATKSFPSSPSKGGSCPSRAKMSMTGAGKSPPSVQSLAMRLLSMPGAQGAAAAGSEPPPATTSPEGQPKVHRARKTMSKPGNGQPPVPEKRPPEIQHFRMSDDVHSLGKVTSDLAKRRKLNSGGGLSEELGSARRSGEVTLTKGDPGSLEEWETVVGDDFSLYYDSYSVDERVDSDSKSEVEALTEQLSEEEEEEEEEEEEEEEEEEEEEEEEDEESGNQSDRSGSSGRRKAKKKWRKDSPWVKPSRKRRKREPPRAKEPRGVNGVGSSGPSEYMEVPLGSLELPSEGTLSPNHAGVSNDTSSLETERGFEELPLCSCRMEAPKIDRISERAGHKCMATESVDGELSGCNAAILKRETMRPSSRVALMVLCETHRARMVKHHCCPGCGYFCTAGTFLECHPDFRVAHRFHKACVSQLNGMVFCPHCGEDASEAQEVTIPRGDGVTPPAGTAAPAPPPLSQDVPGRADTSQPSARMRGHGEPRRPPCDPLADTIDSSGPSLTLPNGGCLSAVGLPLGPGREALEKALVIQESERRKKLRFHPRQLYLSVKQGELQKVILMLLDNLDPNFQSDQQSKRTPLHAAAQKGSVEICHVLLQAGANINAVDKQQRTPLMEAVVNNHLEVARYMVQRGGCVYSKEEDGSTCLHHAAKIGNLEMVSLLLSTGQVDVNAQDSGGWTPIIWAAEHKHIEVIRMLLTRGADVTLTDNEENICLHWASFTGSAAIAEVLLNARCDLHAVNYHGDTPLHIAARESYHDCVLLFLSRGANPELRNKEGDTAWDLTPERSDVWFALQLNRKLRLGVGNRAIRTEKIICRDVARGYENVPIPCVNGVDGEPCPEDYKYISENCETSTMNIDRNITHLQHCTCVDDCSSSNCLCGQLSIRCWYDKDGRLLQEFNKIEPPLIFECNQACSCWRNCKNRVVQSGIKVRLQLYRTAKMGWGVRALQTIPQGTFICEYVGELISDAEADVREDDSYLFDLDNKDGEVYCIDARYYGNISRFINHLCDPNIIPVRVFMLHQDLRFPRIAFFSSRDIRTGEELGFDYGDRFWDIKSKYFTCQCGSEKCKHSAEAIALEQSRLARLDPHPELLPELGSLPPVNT
How it was run: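 AlphaScreen detection with an anti-monomethyl H3K9 antibody quantified product after a 2 h room-temperature reaction containing 500 nM biotinylated H3K9 peptide, 20 µM SAM and 20 nM enzyme, which had been preincubated 15 min with compound.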
For `CN(C)c1ccc(CNCC2CCCO2)cc1` (stereo not given), the Potency was inconclusive: 79.4 µM [inhibitor, single point].
`CCN(Cc1ccncc1)Cc1ccc(Br)cc1` was tested, and the Potency was inconclusive: 2 µM [inhibitor, partial curve, poor fit].
In the case of `CCN(c1ccccc1)S(=O)(=O)c1cccc(C(=O)N2CCN(S(=O)(=O)c3ccccc3)CC2)c1`, the Potency is reported as inconclusive: 89.1 µM [inhibitor, single point].
`O=C1S/C(=C\c2ccc(Cl)cc2)C(=O)N1CCn1cnnn1` was tested, and the “activity, negative = inhibition” value was inactive: 34.5% [at 102 µM].
For `C#CC(=O)N(c1ccc(OC)cc1OC)C(C(=O)NC1CCCC1)c1cccs1` (stereo not given), the Potency was inconclusive: 11.2 µM [inhibitor, full curve].
`O=C1CNC(=S)N1CCc1ccc(O)c(O)c1` was tested, and the Potency was active: 10 µM.
For `COc1cccc(N(CC(=O)N2CCN(c3ccccc3OC)CC2)S(C)(=O)=O)c1`, the Potency was active: 79.4 µM.
In the case of `CN1CCN(C(c2ccc(F)cc2)c2nnnn2Cc2cccs2)CC1` (stereo not given), the activity, negative = inhibition is reported as inconclusive: -92.7% [inhibitor].
`COc1cc(C(=O)N2CCN(C(=O)c3cc(-c4ccc(Br)cc4)n[nH]3)CC2)cc(OC)c1OC` was tested, and the “activity, negative = inhibition” value was inactive: 23.1% [at 102 µM].
`Cc1ccc(CNC(=O)CCCNS(=O)(=O)c2cccc3nonc23)cc1` was tested, and the Potency was inconclusive: 0.447 µM [inhibitor, partial curve, poor fit].
With `Cc1ccc(-c2nc3ncccc3o2)cc1NC(=O)c1sc2ccccc2c1Cl` the Potency was inconclusive: 79.4 µM [inhibitor, partial curve, poor fit].
`O=C(C(Cc1ccccc1)n1cccc1)N1CCN(C2CCCCC2)CC1` (stereo not given) was tested, and the Potency was inconclusive: 89.1 µM [inhibitor, single point].
For `Cc1ccc(N(CC(=O)NC2CCCC2)C(=O)CNC(=O)c2cccs2)cc1C`, the “activity, negative = inhibition” value was inactive: 9.5%.
In the case of `COc1cc(/C=C/C(=O)Nc2nnc(CC(C)(C)C)s2)cc(OC)c1OC`, the Potency is reported as active: 2.24 µM.
`COc1ccc(-c2noc(CNC(=O)COc3cccc(C)c3C)n2)cc1` was tested, and the “activity, negative = inhibition” value was inactive: -0.524%.
`CN1C(=S)N(c2cccnc2)C(=O)/C1=C\c1ccc(N(C)C)cc1` was tested, and the Potency was inconclusive: 7.94 µM [inhibitor, partial curve, poor fit].
`Cc1oc(-c2ccc(C(F)(F)F)cc2)nc1CN(Cc1ccccn1)C[C@@H]1CCC(=O)N1` was tested, and the Potency was inconclusive: 35.5 µM [inhibitor, partial curve, poor fit].
In the case of `Cc1occc1C(=O)N1CCCC(Nc2ccc(C(C)C)cc2)C1` (stereo not given), the Potency is reported as active: 39.8 µM.
For `Cc1onc(-c2c(Cl)cccc2Cl)c1C(=O)N1CCOCC1`, the “activity, negative = inhibition” value was inactive: -0.836% [at 102 µM].
In the case of `CSc1ccccc1NC(=O)CN(C)Cc1ccc(Br)cc1`, the “activity, negative = inhibition” value is reported as inactive: 135% [at 102 µM].
For `O=C(CN1C(=O)C2CCCCC2C1=O)NC1CCCc2ccccc21` (stereo not given), the Potency was inconclusive: 89.1 µM [inhibitor, partial curve, poor fit].
For `O=C1CC(c2ccccc2)n2nc(N3C(=O)c4ccccc4C3=O)nc2N1` (stereo not given), the “activity, negative = inhibition” value was inactive: -9.19%.
In the case of `O=C(Nc1ccncc1)c1c(Cl)cccc1Cl`, the “activity, negative = inhibition” value is reported as inactive: 9.97% [at 102 µM].
`COC(=O)c1ccccc1-c1ccc(/C=N/NC(N)=O)o1` was tested, and the Potency was inconclusive: 4.47 µM [inhibitor, single point].
In the case of `COCCn1nnnc1C(c1ccccc1OC)N1CCN(c2ccccc2)CC1` (stereo not given), the Potency is reported as active: 44.7 µM.
`COc1ccc(-c2nc(CSCC(=O)NCc3ccccc3Cl)c(C)o2)cc1OC` was tested, and the Potency was inconclusive: 39.8 µM [inhibitor, partial curve, poor fit].
`Cc1c(C(=O)NCc2cccnc2)oc2ccc(S(=O)(=O)N3CCCC(C)C3)cc12` (stereo not given) was tested, and the Potency was inconclusive: 7.08 µM [inhibitor, partial curve, poor fit].
With `Cc1cccnc1NC1CCCCC1` the Potency was inconclusive: 100 µM [inhibitor, single point].
For `CC(C)c1ccc(Nc2c(-c3ccccn3)nc3ccccn23)cc1`, the Potency was inconclusive: 25.1 µM [inhibitor, single point].
`CCCOc1ccccc1OCC(=O)N1CCN(S(=O)(=O)c2ccc(Cl)cc2)CC1` was tested, and the Potency was inconclusive: 4.47 µM [inhibitor, single point].
In the case of `N#CC1=C(N)SC(N)=C(C#N)C1C1C=CCCC1` (stereo not given), the Potency is reported as inconclusive: 25.1 µM [inhibitor, single point].
`COc1cccc(/C=N/NC(=O)c2ccc(-n3cnnn3)cc2)c1` was tested, and the “activity, negative = inhibition” value was inactive: -25.4% [at 102 µM].
With `CCOC(=O)C(CC)Sc1nc2c(c(=O)[nH]c(=O)n2C)n1C/C=C(/C)Cl` (stereo not given) the Potency was inconclusive: 3.16 µM [inhibitor, partial curve, poor fit].
`CC1=NN(c2ccccc2)C(=O)C1C=Nc1ccccc1O` (stereo not given) was tested, and the “activity, negative = inhibition” value was inactive: -0.834% [at 102 µM].
With `Cc1ccnc(N2C(=O)c3ccc([N+](=O)[O-])cc3C2=O)c1` the Potency was inconclusive: 89.1 µM [inhibitor, single point].
In the case of `Cc1ccc2cc(CCNC(=O)c3ccco3)c(=O)[nH]c2c1`, the Potency is reported as inconclusive: 28.2 µM [inhibitor, single point].
For `Cn1c(O)c(N=Nc2nc(-c3ccccc3)cs2)c2ccccc21`, the Potency was inconclusive: 2.24 µM [inhibitor, partial curve, poor fit].
For `COc1ccc(Nc2oc(COc3ccc(Cl)cc3)nc2C#N)cc1`, the Potency was inconclusive: 35.5 µM [inhibitor, single point].
For `COc1cccc(/C=C/c2nc(C#N)c(N3CCN(C)CC3)o2)c1`, the Potency was inconclusive: 31.6 µM [inhibitor, partial curve, poor fit].
In the case of `COc1cc(NC(=O)C2CCN(S(=O)(=O)c3c(C)noc3/C=C/c3ccccc3F)CC2)cc(OC)c1OC`, the “activity, negative = inhibition” value is reported as inactive: -4.81%.
In the case of `COc1ccc2oc(/C=C/N(C)C)c(C(=O)c3ccc(Cl)cc3)c2c1`, the Potency is reported as active: 50.1 µM.
In the case of `COc1ccc(Cl)c(NCCC(=O)O)c1`, the Potency is reported as inconclusive: 39.8 µM [inhibitor, single point].
`COc1ccc(C2=NN(C(=O)c3ccncc3)C(c3ccccc3O)C2)cc1` (stereo not given) was tested, and the Potency was inconclusive: 89.1 µM [inhibitor, single point].
For `O=C(COc1ccccc1[N+](=O)[O-])N1CCC(Cc2ccccc2)CC1`, the Potency was inconclusive: 0.355 µM [inhibitor, full curve, poor fit].
For `O=C(Oc1cccc2cccnc12)c1ccc(Br)o1`, the Potency was inconclusive: 3.16 µM [inhibitor, single point].
